The values that follow are results of earlier work, collected in publication PMC3048380, “Crystal Structure of an Integron Gene Cassette-Associated Protein from Vibrio cholerae Identifies a Cationic Drug-Binding Module” (PLoS ONE, 2011).

The Kd is the free concentration of one partner at which half of the binding sites on the other are occupied at equilibrium, for simple one-to-one binding.

Structures are written as SMILES.

For this data set, the target named is BmrR E134Q. The settings on record: earlier binding studies of BmrR, no footnote on the cell; cited from earlier work.

Consider `c1ccc([P+](c2ccccc2)(c2ccccc2)c2ccccc2)cc1` [tetraphenylphosphonium (TPP), tetraphenylphosphonium chloride], for which the Kd is 62.6 ± 3.3 µM.
